These results are taken from ChEMBL document CHEMBL5308541, “MAIP: An Open-Source Tool to Enrich High-Throughput Screening Output and Identify Novel, Druglike Molecules with Antimalarial Activity” (ACS Med Chem Lett, 2023).

Hit rate of the full screen: of about 150,000 compounds, about 540 (0.36%) showed an effect of 50% or more. Some of the results follow.

The experiment has as its system Plasmodium falciparum. In words: Primary screen in NF54 nanoGlo assay, in single point, at 2uM, 72h; a lower Z score goes with more inhibition. The format is functional, Erythrocyte. To be noted: timepoint 72 hour.
What is called % Inhibition is the change of the read-out against control, counted positive when it falls. In the case of `O=C(NS(=O)(=O)CCC(F)(F)F)c1ccc(-c2noc(C(F)F)n2)cc1`, the “% Inhibition” value is -4% and the Z score is listed as 0.55.
The corresponding values for `O=C(O)C1CC1C(=O)N1CCC(C(F)(F)F)CC1` (stereo not given) are -1% and 0.28.
The like results for `N#Cc1cc(CN2CCCC[C@H]2c2cc[nH]n2)c(F)cc1F` were, in that order, -6% and 1.06.
The like results for `CN(C)CC1CCC(NC2CCN(c3nccs3)CC2)CC1` (stereo not given) were, in that order, -4% and 0.7.
As for `CNC(=O)Cn1nnc(CO)c1CCc1ccccc1`, the “% Inhibition” value is recorded as -5% and the Z score is listed as 0.8.
With `Cc1nn(C)cc1-c1cccc(C(=O)N2CCC(N3CCCCCC3)CC2)c1`, the “% Inhibition” value amounted to 5% and the Z score is reported as -1.07.
The like results for `CCC(CO)(CO)NC(=O)c1ncc(C(C)(C)C)o1` were, in that order, -4% and 0.63.
The like results for `c1cc(CNc2ncnc3c2CCCC3)cc(-c2cnco2)c1` were, in that order, -14% and 2.49.
The like results for `O=C(NC[C@H](O)c1cccc(O)c1)c1cc(O)c2cccc(F)c2n1` were, in that order, 5% and -1.14.
As to `O[C@H]1CCN(c2ccnc(-c3cc(NC4CCCC4)nc4[nH]ccc34)n2)C1`, the “% Inhibition” value was -3% and the Z score was determined as 0.6.
The corresponding values for `CNc1nc(N[C@H]2C[C@@H](c3cc(NCCO)ncn3)C2)nc2c1CCC2` are -11% and 2.
The corresponding values for `C[C@@H](CC(=O)N(CCO)CCOCCO)Cc1cccc(F)c1` are -14% and 2.11.
The like results for `COC12CCC(Oc3ccccn3)CC1N(c1ncnc3[nH]ccc13)CC2` (stereo not given) were, in that order, -5% and 0.91.
Consider `Cc1cc(C(N)=O)c(NC2COCC2N2CCN(C)CC2)nc1C` (stereo not given), for which the “% Inhibition” value is recorded as -4% and the Z score amounted to 0.66.
For the compound `CCCN(C)C[C@H]1CCN(c2nc(C)nc3[nH]ccc23)C1`, the “% Inhibition” value is reported as -4% and the Z score was 0.63.
The like results for `CCNc1ccc(Cl)cc1NC(=O)Cc1c(C)[nH]c2ccccc12` were, in that order, -16% and 2.71.
Regarding `CN(C)C(=O)CN1CCC(Nc2nc3ccc(Cl)cc3s2)C(O)C1` (stereo not given), the “% Inhibition” value came to 0% and the Z score worked out at 0.02.
For `CCN(CC)CCNc1nc2cc(C)cc(C)c2s1`, the “% Inhibition” value stood at 3% and the Z score is given as -0.45.
For `CCn1ncc2cc(C(=O)N(C)[C@H]3CCN(C4CCN(C)CC4)C3)c(C)nc21`, the “% Inhibition” value came to 6% and the Z score was -0.97.
The like results for `COCCNc1nc2cc(C(=O)NC3CCCN4CCCC34)ccc2n1C` (stereo not given) were, in that order, -1% and 0.27.
As for `CC(C)N1CCC(NC(=O)CN2CCCN(Cc3cnn(C)c3)CC2)CC1`, the “% Inhibition” value worked out at 0% and the Z score was found to be 0.01.
The corresponding values for `O=C(Nc1ncc(-c2ccccc2)s1)N1CCN(C2CCOCC2)CC1` are -1% and 0.23.
In the case of `CCOc1ccc2nc(N3CCC(C(=O)N4CCNC(=O)[C@@H]4c4ccc(F)cc4)CC3)nc(C)c2c1`, the “% Inhibition” value is given as -17% and the Z score is given as 3.06.
The corresponding values for `Cn1ccc2c(-c3cccc([C@@H]4CCCN4)c3)ccnc21` are -15% and 2.27.
Consider `Oc1nc(CN2C[C@@H]3CCCCN3c3ccccc32)n[nH]1`, for which the “% Inhibition” value is given as -21% and the Z score amounted to 3.2.
The corresponding values for `CC(c1nnnn1C1CC1)N(C)C[C@@H]1OCCN(C)[C@H]1c1ccccc1` (stereo not given in full) are -2% and 0.44.
For `Nc1cnccc1-c1ccc(C(=O)N2CCC(N3CCCCC3)CC2)cc1`, the “% Inhibition” value is given as 1% and the Z score is -0.12.
The like results for `COc1cc2nc(-c3cc(Cl)c(O)cc3C)nc(N)c2cc1OC` were, in that order, 2% and -0.41.
The like results for `CC(C)N1CCN([C@H]2CCN(C(=O)c3ccc(F)c4ccncc34)C2)CC1` were, in that order, -2% and 0.32.
The corresponding values for `c1ccc(-c2ccnc(CCNC3CCN(Cc4ccco4)CC3)n2)cc1` are 3% and -0.62.
Take `CN(CCc1ccccn1)C(=O)c1ccc(-c2cc(-c3cccc(C(F)(F)F)c3)n[nH]2)cc1`: the “% Inhibition” value is given as -1% and the Z score amounted to 0.15.
The like results for `C[C@H](NC(=O)N1CCC(Oc2cnccn2)CC1)c1ccc2[nH]ncc2c1` were, in that order, -7% and 1.32.
The like results for `CC(=O)NC1CCC(Cc2nnc(NC3CCc4ccccc4C3)o2)C1` (stereo not given) were, in that order, -11% and 2.42.
The corresponding values for `C[C@@H]1C[C@H](Cn2nnnc2Cc2ccccn2)C[C@H](C)O1` are 0% and -0.08.
For the compound `Cc1cnc(NC2CC(C)OC(C)C2)nc1NC1CC(C)OC(C)C1` (stereo not given), the “% Inhibition” value stood at 21% and the Z score is given as -3.61.
The corresponding values for `OCC1CCN(CCNCc2cccc3cn[nH]c23)CC1` are -4% and 0.87.
In the case of `CN1CC[C@@]2(CCC1=O)CN(c1ncc(F)c(N3CCOCC3)n1)CCN2C`, the “% Inhibition” value is -8% and the Z score is 1.33.
The corresponding values for `CN1CCCN(CCCN[C@@H](Cc2ccccc2)C2CC2)CC1` are 9% and -1.64.
The like results for `COC(=O)CC1CN(C2CCc3c(F)cccc32)CCO1` (stereo not given) were, in that order, -6% and 1.22.
The corresponding values for `CC(C)c1nnc(NCc2ccc3occc3c2)o1` are 2% and -0.37.
In the case of `CN(Cc1cccc2cnccc12)C(=O)[C@@H]1C[C@@H](NC(=O)CC2CCCC2)CN1`, the “% Inhibition” value worked out at 5% and the Z score is -0.98.
The corresponding values for `OC1CN(c2nc(-c3ccncc3)nc3c2CNC3)CC1N1CCOCC1` (stereo not given) are -16% and 2.84.
The corresponding values for `Cc1cc(N2CCCCC2)nc(NCCNC(=O)Cc2noc3ccccc23)n1` are 13% and -1.94.
The like results for `COc1ccccc1-c1cc(C(=O)Nc2ccc(N3CC[C@H](OC)C3)cc2)n[nH]1` were, in that order, -1% and 0.25.
With `CCCN1CCC(Nc2cc(C)nc3ccccc23)CC1`, the “% Inhibition” value amounted to 58% and the Z score was -8.81.
Turning to `OCCN1CCC(NCCc2cc(Cl)cc(Cl)c2)CC1`, the “% Inhibition” value is given as 28% and the Z score is listed as -5.52.
For the compound `CN1C[C@@H](c2ccccc2)CC2(CCN(c3nc(N)nc4[nH]ncc34)CC2)C1`, the “% Inhibition” value is -8% and the Z score is listed as 1.74.
The corresponding values for `O=C(Nc1cc(-c2cccc(F)c2)on1)N1CCC[C@@H]1CN1CCOCC1` are -5% and 1.17.
The corresponding values for `Nc1nc(N[C@H]2CCN(c3ccccc3C(F)(F)F)C2)cc(-n2cccn2)n1` are -2% and 0.44.
The corresponding values for `CN1CCCN(CC(=O)NCCCN2CCCC[C@@H]2CO)CC1` are 0% and 0.01.
For the compound `CC(C)Nc1cc(-c2ccc(C(=O)N(C)[C@H]3CCN(C)C3)cc2)ncn1`, the “% Inhibition” value is -8% and the Z score was 1.34.
The corresponding values for `Fc1ccc(N2CC[C@H](NCCCc3nc4cc(Cl)ccc4[nH]3)C2)cc1` are -8% and 1.4.
For the compound `CCc1cc2c(NCc3nc4cc(F)ccc4[nH]3)ncnc2s1`, the “% Inhibition” value is -17% and the Z score is 3.
Consider `Cc1nc(Nc2ccc(NS(=O)(=O)c3ccc(OC(F)(F)F)cc3)cc2)cc(-n2ccnc2)n1`, for which the “% Inhibition” value is on record as 19% and the Z score is reported as -2.84.
The corresponding values for `CC(C)CCOc1ccc2[nH]c(-c3cc(N4CCC[C@@H]4CS(C)(=O)=O)ccn3)cc2c1` are 97% and -20.97.
For the compound `c1ccc(N2CCN(CCN3CCC[C@@]4(CCNC4)C3)CC2)cc1`, the “% Inhibition” value is reported as -12% and the Z score stood at 1.89.
For the compound `OC[C@H]1CN(c2ncc(Cl)c(Nc3ccc(F)cc3)n2)CCO1`, the “% Inhibition” value is on record as -6% and the Z score is on record as 0.87.
The like results for `COc1cc(Cn2c(NCCO)nc3ccccc32)sn1` were, in that order, -4% and 0.66.
On to `Cc1cccc2c(Nc3ccc(C#N)cc3)ccnc12`, for which the “% Inhibition” value is -12% and the Z score is given as 2.5.
The like results for `COc1ccc2oc(CNCc3cnc4n3CCCC4)cc2c1` were, in that order, -2% and 0.32.
The like results for `CCc1c[nH]c2ncnc(N3CC[C@H](CNc4cc(C)ccn4)C3)c12` were, in that order, -11% and 2.39.
The like results for `Cc1cc(NC[C@H]2CC(=O)N(C3CCCC3)C2)nc2cc(F)ccc12` were, in that order, 1% and -0.11.
As for `O=C(NCCNc1cc(C2CCNCC2)ncn1)c1ccc(F)cc1`, the “% Inhibition” value is listed as -4% and the Z score is 0.81.
The like results for `COc1cc(CNCC(CN(C)C)C(O)c2ccccc2)cc(OC)c1OC(F)F` (stereo not given) were, in that order, -9% and 1.6.
Turning to `COc1ccc2[nH]nc(CN3CCCC[C@@H]3CCN3CCCC3=O)c2c1`, the “% Inhibition” value amounted to 3% and the Z score is -0.69.
As to `CN(C(=O)c1ccnc2ccccc12)[C@H]1C[C@H]2C[C@@H](O)C[C@H]2C1`, the “% Inhibition” value stood at 0% and the Z score is on record as -0.04.
Take `Cc1c(CNC2CC(C)(C)N(C)C(C)(C)C2)cnn1CCN1CC=CCC1`: the “% Inhibition” value is reported as -9% and the Z score was found to be 1.31.
The like results for `NCCc1nnc(NCc2ccc3sccc3c2)o1` were, in that order, 1% and -0.18.
The like results for `Nc1nc(NCCc2c[nH]c3ccccc23)cc(C2CC(O)C2)n1` (stereo not given) were, in that order, 6% and -1.22.
The like results for `CCCN1CCC(CNc2ncnc3ccc(S(C)(=O)=O)cc23)CC1` were, in that order, 2% and -0.32.
For the compound `COc1cccc(Nc2nn3c(=O)c4ccc(Cl)cc4nc3s2)c1`, the “% Inhibition” value was -5% and the Z score turned out to be 0.72.
As for `OCC1CCCC(Nc2ncc(F)c(N3CCCC3)n2)C1` (stereo not given), the “% Inhibition” value is given as -3% and the Z score was 0.63.
The corresponding values for `COCCN(C)CC1CN(c2ncc(F)c(N3CCOCC3)n2)CC1CO` (stereo not given) are -16% and 2.75.
In the case of `C[C@H]1COCCN1c1ccnc(N2CCOC[C@@H]2C)n1`, the “% Inhibition” value is -2% and the Z score came out at 0.32.
Take `Fc1ccccc1N1CCC(NC2COCC2Cc2ccnc3ccccc23)CC1` (stereo not given): the “% Inhibition” value is on record as -4% and the Z score was determined as 0.83.
The corresponding values for `CNc1nc(NC(Cc2ccncc2)[C@H]2C[C@@H](O)C2)ncc1F` (stereo not given in full) are -2% and 0.39.
In the case of `C[C@H](NC(=O)CN(C)CCN(C)C1CCN(C)CC1)c1cccc2ccccc12`, the “% Inhibition” value was 9% and the Z score is recorded as -2.01.
For the compound `CC(C)c1cnc(NC2COCC2Cc2ccnc3ccccc23)nc1` (stereo not given), the “% Inhibition” value is given as -20% and the Z score was 4.4.
As to `O=C(NCCN1CC[C@H](c2ccccc2)C1)c1cccc(-c2cnccn2)c1`, the “% Inhibition” value is on record as -18% and the Z score was determined as 3.14.
The like results for `Oc1ccc(OC(F)(F)F)cc1-c1ccc2nc[nH]c2c1` were, in that order, -9% and 1.58.
`CC1(C)CC(Nc2cc(-c3ccccc3)ncn2)CC(C)(C)N1`: the “% Inhibition” value was -14% and the Z score was 2.11.
The corresponding values for `Clc1cnc(NCCCNc2ncc(Cl)cn2)nc1` are -9% and 1.84.
On to `CN(C)c1ncc(CNC[C@H](O)c2ccc(F)cc2)s1`, for which the “% Inhibition” value is given as -5% and the Z score is 0.76.
Regarding `Cc1cc(S(=O)(=O)NCc2snnc2C(C)C)c(Cl)cc1F`, the “% Inhibition” value was -6% and the Z score amounted to 1.29.
The like results for `CCOc1cc(N2CCN(C(C)C)CC2)ccc1NC(=O)c1ccnc(OC2CCC2)c1` were, in that order, -7% and 1.19.
